The campaign covered roughly 320,000 compounds. About 200 (0.062%) were called active. Inconclusive means that the source gave no clear call. Such entries were picked first, then a sample of the others. Calls follow the shape of the dose curve; as a rule, active = well fitted activation curve with a large enough effect; inconclusive = small, poorly fitted or top-dose-only effect; inactive = no such curve, though single readings can be large or run the other way. No potency is given beside an inconclusive call; the fits are too rough.
Test: qHTS assay for re-activators of p53 using a Luc reporter; also: nearly all actives have a fitted effect of over 45% in size; as to activity change, positive = activation: % of control where 0% means no effect
Details: H1299 p53-A138V BP100-luciferase reporter, luminescence, 24 h; series mostly up to 92.2 µM; activity change, positive = activation: at the top concentration
In short: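 H1299 (p53-null), stable ts p53-A138V + BP100-Luc; 1000 cells/well, Opti-MEM/10% FBS; cpd 4 pt, 1:5; 24 h, 37 deg C, 5% CO2; detection reagent 10 min RT; luminescence.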
Potency is read from the fitted curve at half-maximal effect; tags tell the direction and shape of the fitted curve.

SMILES	Potency	activity change, positive = activation
Clc1ccsc1-c1ccc2ccccc2n1	inconclusive [activator, partial curve, poor fit]	–
O=C(Nc1ccc2nc(N3CCOCC3)sc2c1)c1ccccc1	inconclusive [activator, partial curve, poor fit]	–
CC12CCC(=O)N1C(C(=O)Nc1ccc(Cl)c(S(=O)(=O)N3CCCCC3)c1)CS2 (centres undefined)	–	inactive: -2.05%
Cc1ccc(C(=O)/C=C/Nc2cccc(O)c2)cc1	inconclusive [activator, partial curve, poor fit]	–
CCCC(=O)Nc1nc2ccc3nc(C)sc3c2s1	inconclusive [activator, partial curve, poor fit]	–
Oc1ccccc1-c1nnc(COc2ccccc2)o1	inconclusive [activator, partial curve, poor fit]	–
CC(C)c1nnc(NC(=O)c2ccc3ccccc3c2)s1	inconclusive [activator, full curve, poor fit]	–
CC(=O)c1ccc(NC(=O)c2noc3c2CCCCC3)cc1	inconclusive [activator, partial curve, poor fit]	–
C=CCNc1nc(-c2ccc(OC)cc2OC)cs1	inconclusive [activator, partial curve, poor fit]	–
Cc1cc(/C=C2/C(=O)NN(c3ccccc3)C2=O)c(C)n1-c1ccc(O)cc1	–	inactive: 17.9%
CC1CCN(C(=O)CSc2nc3ccccc3s2)CC1	inconclusive [activator, partial curve, poor fit]	–
Cc1ccsc1C1NC(=O)c2c(sc3c2CCN(C)C3)N1 (centres undefined)	inconclusive [activator, single point]	–
Cc1ccc(NCC(=O)N/N=C\C(Br)=C\c2ccccc2)cc1	–	inactive: 9.43%
CN(C)c1ccc(C2NC(=O)c3ccccc3N2)cc1 (centres undefined)	–	inactive: -46.2%
COc1ccc(C(c2sc3ncnn3c2O)N2CC(C)OC(C)C2)cc1OC (centres undefined)	inconclusive [activator, single point]	–
Fc1ccccc1C1CC(c2ccco2)=Nc2ccccc2S1 (centres undefined)	inconclusive [activator, full curve, poor fit]	–
CN(C)c1ccc(NC(=O)Nc2ccc3snnc3c2)cc1	inconclusive [activator, single point]	–
Cc1[nH]n(-c2ccccc2)c(=O)c1/C=N/NC(=O)c1ccccc1F	inconclusive [activator, full curve, poor fit]	–
COC(=O)c1ccc(COc2ccc3c(C)c(C)c(=O)oc3c2)o1	inconclusive [activator, partial curve, poor fit]	–
CC(=O)Nc1cccc(C(=O)/C=C/c2cccs2)c1	inconclusive [activator, partial curve, poor fit]	–
O=C1Nc2cc(C(=O)N3CCN(c4ccccn4)CC3)ccc2S/C1=C\c1ccccc1	–	inactive: 6.71%
CCOc1ccc2nc(SCC(=O)c3cccs3)sc2c1	inconclusive [activator, partial curve, poor fit]	–
O=C(Nc1ccc(F)c(Cl)c1)Nc1csc2ccccc12	inconclusive [activator, partial curve]	–

SMILES	Potency	activity change, positive = activation
COc1ccc(C(CC(=O)Nc2nccs2)n2cccc2)cc1 (centres undefined)	inconclusive [activator, partial curve, poor fit]	–
O=c1c2ccccc2cnn1-c1ccc2ccccc2c1	inconclusive [activator, full curve, poor fit]	–
COc1ccc2[nH]c3c(c2c1)CCN1C(=O)C(CC(=O)NCCCN(C)C)C[C@H](C(=O)N2CCOCC2)[C@@]31CCC1CCCC1 (some centres undefined)	–	inactive: -5.21%
COc1ccc(-c2nnn(CC(=O)N(CC(=O)NC3CCCC3)c3ccccc3F)n2)cc1OC	–	inactive: -7.08%
COc1ccccc1CCC(=O)Oc1ccc(C#N)cc1OC	–	inactive: -6.96%
S=C(NCCc1ccccc1)N/N=C/c1cccc(Cl)c1Cl	inconclusive [activator, single point]	–
CCOc1ccccc1Nc1nnc(SCC(=O)Nc2cccc(S(=O)(=O)NC3=NCCCCC3)c2)s1	–	inactive: -1.16%
OC[C@@H]1CC[C@@H](Cc2ccc(-c3ccccc3)cc2)O1	inconclusive [activator, partial curve, poor fit]	–
Cc1cc2cc(CNC(=O)NC3CCCCC3)ccc2[nH]1	inconclusive [activator, single point]	–
CC1(C)CC(=O)C2=C(C1)C(c1cn(-c3ccccc3)nc1-c1ccccc1)C(C#N)=C(N)O2 (centres undefined)	inconclusive [activator, partial curve, poor fit]	–
Cc1ccc(C(C(=O)NCC2CCCO2)N(Cc2ccccc2)C(=O)c2ccc(-c3ccccc3)[nH]2)o1 (centres undefined)	–	inactive: -9.87%
O=C(CSc1nccn1-c1ncc(C(F)(F)F)cc1Cl)c1ccc(Br)cc1	inconclusive [activator, single point]	–
N#Cc1cc(C(=O)c2ccccc2O)cn(-c2nccs2)c1=O	inconclusive [activator, single point]	–
Cc1c(Cl)cccc1NC(=O)C1Cc2ccccc2CN1C(=O)c1ccccc1 (centres undefined)	inconclusive [activator, partial curve, poor fit]	–
CCc1ccc(N2C(=O)C(Cl)=C(N3CCOCC3)C2=O)cc1	–	inactive: 2%
CC(C)(C)c1ccc(NC(=O)c2ccc(=O)[nH]n2)cc1	inconclusive [activator, full curve, poor fit]	–
O=C(Nc1nnc(SCC(=O)N2CCOCC2)s1)c1ccccc1	inconclusive [activator, full curve, poor fit]	–
Cc1ccc(C(=O)/C=C\C(=O)c2ccc(C)cc2)cc1	–	inactive: -31.1%
CC(/C=N/N1CCN(c2ccccn2)CC1)=C\c1ccccc1	inconclusive [activator, partial curve, poor fit]	–
O=C(Nc1ccc(Cl)cc1)c1ccsn1	inconclusive [activator, partial curve, poor fit]	–
CCCN1C(=O)C(=O)c2cc(Cl)ccc21	–	inactive: -17.6%
CCc1cc(C(=O)O)c(NC(=O)/C=C/c2ccc(OC)cc2)s1	inconclusive [activator, single point]	–
COc1ccc(/C=C/C(=O)c2ccccc2)c(OC)c1	–	inactive: 8.44%

SMILES	Potency	activity change, positive = activation
CCC1CCCCN1C(=O)c1ccc([N+](=O)[O-])o1 (centres undefined)	inconclusive [activator, partial curve, poor fit]	–
C=CCN(C(=O)OC(C)(C)C)S(=O)(=O)NCc1ccccc1	inconclusive [activator, single point]	–
CC/C(=N/NC(=O)c1ccccc1)c1ccc(OCCN2CCOCC2)cc1	inconclusive [activator, full curve, poor fit]	–
C=C(C)c1cccc(C(C)(C)NC(=O)NC2CC(C)(C)NC(C)(C)C2)c1	–	inactive: -0.348%
Clc1ncnc2scc(-c3ccccc3)c12	inconclusive [activator, full curve, poor fit]	–
O=C(Nc1nccs1)c1ccc(Cl)s1	inconclusive [activator, full curve, poor fit]	–
CCCCCCNC(=O)CC(c1ccccc1)c1cc(Br)ccc1O (centres undefined)	–	inactive: -13.4%
CC(OC(=O)Cc1c[nH]c2ccccc12)C(=O)Nc1ccc(S(N)(=O)=O)cc1 (centres undefined)	–	inactive: -4.95%
CCC(=O)NC(c1cccs1)c1cc([N+](=O)[O-])c2cccnc2c1O (centres undefined)	inconclusive [activator, partial curve, poor fit]	–
COc1cccc(CNC(=O)C2CC(=O)N(C3CCCCC3)C2)c1 (centres undefined)	inconclusive [activator, single point]	–
Cc1ccsc1C(=O)OCc1cc(=O)n2ccsc2n1	inconclusive [activator, partial curve, poor fit]	–
COc1cc(-c2nc3ccccc3s2)ccc1O	inconclusive [activator, partial curve, poor fit]	–
O=C(Nc1cccc(F)c1)c1ccc(CSc2ccccc2)o1	inconclusive [activator, partial curve, poor fit]	–
Cc1ccc(-c2csc(NC(=O)CSc3nc4ccccc4o3)n2)cc1	inconclusive [activator, partial curve, poor fit]	–
CC1CCN(C(=O)c2cc(-c3ccc(Cl)c(Cl)c3)on2)CC1	inconclusive [activator, partial curve, poor fit]	–
CC(=O)Nc1nonc1-c1nc2ccccc2n1C	inconclusive [activator, single point]	–
CCOc1ccc2oc(-c3ccccc3)c(C(=O)N3CCN(C)CC3)c2c1	–	inactive: -6.51%
CCC(C(=O)Nc1nccs1)(C(F)(F)F)C(F)(F)F	–	inactive: -5.88%
Cn1c(C(=O)NCCN2CCOCC2)cc2c(=O)n3ccccc3nc21	inconclusive [activator, single point]	–
COc1cc(S(=O)(=O)NCC2(N3CCCCC3)CCCCC2)ccc1NC(C)=O	–	inactive: 4.81%
COc1ccc2c(c1)oc1c(SCc3nc4ccccc4[nH]3)nc(C)nc12	–	inactive: 21.6%
CC(C)c1ccc(NC(=S)Nc2ccc3[nH]c(=O)[nH]c3c2)cc1	–	inactive: 2.18%
Cc1ccc(C(=O)c2coc3ccc(O)c(Cl)c23)cc1	inconclusive [activator, partial curve, poor fit]	–

Reference: PubChem BioAssay AID504706 (National Center for Advancing Translational Sciences (NCATS), 2011)
